# The campaign covered roughly 110,000 compounds. About 230 (0.21%) showed an effect of 50% or more. This is one part of the list.
# Target: DPAP1 (Plasmodium falciparum, UniProt Q8IIJ9)
# Test: primary screen, percent inhibition; read by cleavage of a fluorogenic dipeptide substrate; higher = more effect of the substance
# Parameters: species or system P. falciparum D10 trophozoite lysates; single well
# 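Further: 30 min substrate incubation versus DMSO and 10 µM JCP410 controls.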
# Chain of DPAP1 (Q8IIJ9 whole entry, looked up): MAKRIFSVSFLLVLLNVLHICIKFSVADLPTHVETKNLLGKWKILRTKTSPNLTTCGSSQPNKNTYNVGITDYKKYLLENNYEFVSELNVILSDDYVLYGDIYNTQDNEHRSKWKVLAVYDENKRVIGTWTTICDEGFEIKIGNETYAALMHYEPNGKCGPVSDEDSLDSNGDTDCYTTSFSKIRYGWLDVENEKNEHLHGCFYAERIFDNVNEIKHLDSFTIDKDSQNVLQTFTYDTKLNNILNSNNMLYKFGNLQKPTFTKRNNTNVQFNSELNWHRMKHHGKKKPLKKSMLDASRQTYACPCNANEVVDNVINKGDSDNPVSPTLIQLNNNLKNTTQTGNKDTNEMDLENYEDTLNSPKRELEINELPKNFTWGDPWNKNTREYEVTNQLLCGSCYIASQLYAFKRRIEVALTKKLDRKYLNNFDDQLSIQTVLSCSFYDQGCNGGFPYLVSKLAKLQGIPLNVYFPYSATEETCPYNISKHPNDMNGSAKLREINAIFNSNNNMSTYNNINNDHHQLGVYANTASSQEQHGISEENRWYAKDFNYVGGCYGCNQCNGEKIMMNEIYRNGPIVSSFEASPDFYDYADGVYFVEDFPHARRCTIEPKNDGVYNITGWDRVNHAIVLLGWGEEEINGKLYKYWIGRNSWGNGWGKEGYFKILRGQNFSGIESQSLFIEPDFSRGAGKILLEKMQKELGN
row,SMILES,% Inhibition @ 10 uM
1,COCCCNC(=O)c1ccc(CSc2nc3ccncc3n2Cc2ccc(OC)cc2)cc1,4.53%
2,Cc1cc(C)nc(N2C3CCC2CC(O)(c2ccccc2)C3)n1 (centres unmarked),3.66%
3,CS(=O)(=O)N1CCCC(C(=O)NCCC2=CCCCC2)C1 (centres unmarked),3.79%
4,Cc1ccc(/C=C(\C#N)C(N)=O)c(C)c1,0.968%
5,CC1CCN(C(=S)NC2CCCCC2)CC1,-8.05%
6,COc1ccc(C(CC(=O)NCc2ccccc2)NS(=O)(=O)c2ccc(F)cc2)cc1 (centres unmarked),-0.406%
7,Oc1c(Cc2ccccc2)cnc2ccccc12,3.32%
8,CCCCOc1ccc(C2=N/C(=C\OCC)C(=O)O2)cc1,13.1%
9,CC(C)(C)c1ccc(C(=O)Nc2ccccc2C(F)(F)F)cc1,-4.08%
10,O=C(Nc1cc(Cl)ccc1Cl)C1CCC(N2C(=O)C3C4C=CC(C5CC45)C3C2=O)CC1 (centres unmarked),-4.91%
11,CC1=NOC(=O)/C1=C\c1ccc(-c2ccc(Cl)c(C(=O)O)c2)o1,1.91%
12,COc1ccc(/C=C2\C(=O)N(c3cccc(Br)c3)N=C2C)cc1OC,3.98%
13,COc1ccc(/C=N/n2cnnc2SC)cc1OC,-1.69%
14,CC(=O)Nc1ccc(NC(=O)c2sc3cc(Cl)ccc3c2Cl)cc1,2.36%
15,CCCCN(CC)C(=O)CSc1nc2nnc(C)c-2c(N)n1-c1ccc(Br)cc1,1.2%
16,COc1ccc(CN2CCN(Cc3ccc(OC)c(OC)c3)CC2)cc1,-17.7%
17,COCCCNC(=O)CN1C(=O)C(c2ccccc2)Oc2cccnc21 (centres unmarked),0.436%
18,CCCCCNC(=O)CSc1nc2ccccc2[nH]1,-3.78%
19,COCCNC(=O)c1c(C)c(-c2ccc(C)cc2)nc2ccccc12,-1.42%
20,NC(=O)C1CCCN(Cc2ccccc2F)C1 (centres unmarked),-0.446%
21,O=C(/C=C/c1ccccc1F)c1ccc(Cl)cc1,-1.03%
22,Clc1ccc(CCNC2CCN(Cc3ccccc3)CC2)cc1,-2.18%
23,CC(=O)c1c(NC(C)C)cc(C)oc1=O,-0.969%
24,CS(=O)(=O)C1=NSC2=NC(=O)/C(=C\c3cn(Cc4ccccc4F)c4ccccc34)C(=N)N21,0.163%
25,O=C(NC1CCN(Cc2ccccc2)CC1)c1nnc(Cc2c(F)cccc2Cl)o1,2.5%
26,COCCCNC(=O)C1CCN(C(=O)c2oc3cc4sc(N(C)C)nc4cc3c2C)CC1,-3.08%

row,SMILES,% Inhibition @ 10 uM
1,CCOC(=O)/C=C(\C)N1N=C2c3ccc(OC)cc3CCC2C1c1ccc(F)cc1 (centres unmarked),-1.77%
2,COc1cc(CNCc2c(C(=O)O)c(C)n(Cc3ccccc3C)c2C)cc(OC)c1OC,-3.67%
3,c1ccc(N2CCN(Cc3ccc4ccccc4c3)CC2)cc1,0.847%
4,COc1nc(NC(C)C)nc(NC(C)C)n1,-4.91%
5,NC(=O)c1sc2nc(-c3ccc4c(c3)OCCO4)cc(C(F)(F)F)c2c1N,33.5%
6,COc1cc(C(=O)N(CCCN(C)C)c2nc3ccc(F)cc3s2)cc(OC)c1OC,-1.07%
7,COc1cccc(C2C3=C(O)CC(C)(C)CC3=NC(C)=C2C(=O)Nc2cccc(C)n2)c1OC (centres unmarked),2.26%
8,Cn1ncc(Br)c1C(=O)NC12CC3CC(CC(C3)C1)C2,3.56%
9,CCS(=O)(=O)N1CCC2(CC1)OC(=O)C(C)=C2C(=O)NCCCc1ccccc1,-2.31%
10,CCN(CC)S(=O)(=O)c1ccc(C(C)=O)cc1,3.71%
11,COc1ccc2[nH]c(C)c(CCNCc3ccc4ccccc4n3)c2c1,-2.5%
12,CC(C)(C)c1csc(NC(=O)COc2ccccc2Cl)n1,4.12%
13,COc1cccc(-c2[nH]nc3c2C(c2ccc(Br)cc2)C(C#N)=C(N)O3)c1 (centres unmarked),0.726%
14,C/C(=N\[C@@H](CC1CCCCC1)C(=O)NC1(C#N)CC1)NS(=O)(=O)c1ccccc1,-1.7%
15,COc1ccc(/C=C2\N=C(c3ccc(C)cc3)OC2=O)c(OC)c1,1.47%
16,Cc1nc2c(c(C)c1CCC(=O)NCCCN1CCCC1=O)c(=O)n(C)c(=O)n2C,-1.3%
17,O=C(NCc1ccccc1)N[C@@H](Cc1ccc2ccccc2c1)C(=O)N[C@@H](CCc1ccccc1)C(=O)CO,-0.778%
18,COc1ccc(C)cc1-n1nc2ccccc2n1,-4.68%
19,COc1ccc(CN(C)CCN(C)C)c2ccccc12,1.54%
20,COc1ccccc1C(=O)Nc1nn(C)c2nc(C)cc(C)c12,11.9%
21,CCOC(=O)C1=C(CN2CCCCC2)NC(=O)NC1c1cc(C)ccc1C (centres unmarked),1.72%
22,COc1cccc(-c2cc(C(=O)NC(C)(C)C)c3ccccc3n2)c1,-2.82%
23,CC(C)C[C@H](NC(=O)NC(C)c1cccc2ccccc12)C(=O)NCC#N (some centres unmarked),1.71%
24,CSc1nc(-c2ccc(F)cc2)c(C)cc1C#N,1.03%
25,COc1ccc(C(=O)Nc2ccccc2C(=O)Nc2ccccc2)cc1,0.755%
26,CCOc1ccc(NC(=O)C2=C(C)NC(=O)NC2c2ccccc2Br)cc1 (centres unmarked),-6.47%

row,SMILES,% Inhibition @ 10 uM
1,O=C(NCC1OCCc2ccccc21)C1OCCc2ccccc21 (centres unmarked),-0.45%
2,CCCOc1ccc(C2C(C#N)=C(N)Oc3[nH]nc(C(C)(C)C)c32)cc1OCC (centres unmarked),0.746%
3,CCOc1ccc(CC(=O)C2C(=O)CC(C)(C)CC2=O)cc1OCC,2.7%
4,CCCSc1nc(O)c(C(C)CC)c(O)n1 (centres unmarked),0.0792%
5,CC(=O)c1ccc(NC(=O)COc2ccc(Cl)c(C)c2)cc1,4.96%
6,CCC(CC)NCCc1ccc(OC)c(OC)c1,8.16%
7,Cc1ccc(N2CCN(C(=O)c3ccccc3NC(=O)CCC(=O)O)CC2)cc1,3.04%
8,O=C(Nc1ccccc1C(=O)N1CCCCC1CCO)c1ccc(Cl)cc1Cl (centres unmarked),11.9%
9,CCOc1ccc2nc(N3CCC(C(=O)N4CCC(C(N)=O)CC4)CC3)sc2c1,0.137%
10,CCCCCCNC(=O)c1c(OC)cccc1OC,1.35%
11,CCN1CCN(Cc2ccc(-c3ccccc3Cl)o2)CC1,-5.31%
12,Cc1ccc(-n2nnc3c(=O)n(Cc4ccccc4Cl)cnc32)cc1,-0.431%
13,O=c1[nH]ccn(Cc2ccc(Cl)cc2)c1=O,-4.58%
14,Cc1ccccc1C(=O)Nc1ccc(CN2CCOCC2)cc1,3.53%
15,CC1CC(=O)C(C(C)C)N(C)C1 (centres unmarked),0.266%
16,CN(CCO)S(=O)(=O)c1ccccc1[N+](=O)[O-],-0.687%
17,CCOc1cc(CN2CCC(O)CC2)ccc1OC,-0.127%
18,CCC(NC(=O)Nc1ccccc1OC)(C(F)(F)F)C(F)(F)F,2.6%
19,CCOC(=O)C1=C(CS(=O)(=O)c2ccc(Cl)cc2)NC(=O)NC1c1ccc(OC)c(OC)c1 (centres unmarked),-3.94%
20,CC1(C)CC(=O)C2=C(C1)OC(N)=C(C#N)C21C(=O)N(CN2CCOCC2)c2ccccc21 (centres unmarked),1.37%
21,CCNc1nc(-c2ccc(C3CCCCC3)cc2)cs1,-3.28%
22,C(=C\CSc1nnnn1-c1ccccc1)/CSc1nnnn1-c1ccccc1,-1.06%
23,COc1ccccc1-c1c(C)c(CC(C)C)nc(N)c1C#N,0.5%
24,O=C1C(S(=O)c2ccc(Cl)cc2)=C(O)c2cccc3cccc1c23 (centres unmarked),77.5%
25,OC1CCCc2c1[nH]c1ccc(C(F)(F)F)cc21 (centres unmarked),-0.357%
26,Cc1ccc(C(=O)CC(=O)c2ccc(Cl)cc2)c(O)c1,-2.41%

row,SMILES,% Inhibition @ 10 uM
1,O=C(Cn1c(=O)sc2cccc(Cl)c21)OCCF,0.273%
2,CC1CCN(S(=O)(=O)c2ccc3c(ccn3CC(=O)NCc3ccccc3)c2)CC1,4.64%
3,CCN1C(=O)/C(=C\c2ccccc2OC)S/C1=N/c1ccccc1,-1.37%
4,CCCCCc1ccc(-c2ccc(C(=O)O)cc2)nc1,3.22%
5,C=CCn1c(SCC(=O)Nc2ccccc2OC)nc2scc(-c3ccc(C)o3)c2c1=O,-4.76%
6,CS(=O)(=O)N(CC(=O)N1CCN(Cc2ccc3c(c2)OCO3)CC1)c1cccc(F)c1,-1.27%
7,C=CCNC(=O)NC(=O)C12CC3CC(CC(C3)C1)C2,-2.62%
8,CC(NC(=O)c1ccccn1)c1ccccc1 (centres unmarked),-0.744%
9,Cn1c(=O)c2c(n(C)c1=O)=NC1(CCCCC1)N=2,-6.22%
10,COc1cc(C2C3=C(O)CCCC3=Nc3nc(-c4ccc(O)cc4)nn32)cc(OC)c1OC (centres unmarked),3.59%
11,O=C1NC(=O)C(=Cc2ccc(SC3CCCCC3)o2)C(=O)N1,0.458%
12,CC(C)CC(NC(=O)OCc1ccccc1)C(=O)NC(CCc1ccccc1)C(=O)c1cc2ccccc2o1 (centres unmarked),-3.97%
13,O=C(CSc1nnc(-c2ccncc2)n1Cc1ccco1)c1c[nH]c2ccccc12,5.01%
14,O=C(NCc1ccc(Cl)cc1Cl)C(=O)NC1CCCC1,1.57%
15,Cc1ccc(C2C3=C(O)CCCC3=Nc3[nH]nc(-c4ccccc4)c32)cc1 (centres unmarked),-0.238%
16,CCN1CCN(Cc2ccc(C(C)C)cc2)CC1,0.847%
17,CSc1ccc(/C=C/C(=O)c2c(O)cc(C)oc2=O)cc1,-3.79%
18,CCOc1ccc(N2C(=O)CC(N3CCSCC3)C2=O)cc1 (centres unmarked),-8.72%
19,CCC(=O)c1c(OCC(N)=O)ccc2c(C)cc(=O)oc12,-0.958%
20,Cc1ccc(C(=O)c2oc3ccccc3c2NC(=O)C2COc3ccccc3O2)cc1 (centres unmarked),-1.11%
21,Cc1ccc(OCCCN2CCCCC2)cc1C,4.6%
22,O=C(O)Cc1ccc(NC(=O)c2ccc3c(c2)C(=O)N(Cc2ccco2)C3=O)cc1,3.53%
23,COc1cccc(-c2[nH]c3c(C#N)cnn3c2NC2CCCCCC2)c1,3.84%

# Source: article PMC6919601, “Identification of Plasmodium dipeptidyl aminopeptidase allosteric inhibitors by high throughput screening” (PLoS ONE, 2019)
